Test results from the antibiotic and cytotoxicity screens of Wong et al. (2023).
The other results are listed elsewhere or left out.

What follows are compounds tested on HSkMC (human skeletal muscle cells) (assay: cytotoxicity call (relative viability < 0.9)). Conditions: 10 µM.

SMILES	cytotoxicity call
C[C@H](CO)N1C[C@H](C)[C@@H](CN(C)S(=O)(=O)c2cn(C)cn2)Oc2ccc(NC(=O)NC3CCCCC3)cc2C1=O	inactive
CN1C(=O)c2cc(NC(=O)c3cnccn3)ccc2OC[C@@H]2O[C@@H](CC(=O)N[C@H]3CCN(Cc4ccccc4)C3)CC[C@H]21	inactive
O=S(=O)(c1ccccc1)N1CCN(CCO)CC1	inactive
C[C@@H]1CCCCO[C@H](CN(C)Cc2ccc(Cl)c(Cl)c2)[C@@H](C)CN([C@H](C)CO)C(=O)c2cc(NC(=O)Nc3ccc4c(c3)OCO4)ccc2O1	inactive
C[C@@H]1CN([C@@H](C)CO)S(=O)(=O)c2ccc(C#CC3CCCC3)cc2O[C@@H]1CN(C)Cc1cncnc1	inactive
C[C@@H]1CCCCO[C@@H](CN(C)Cc2ccc(C(=O)O)cc2)[C@H](C)CN([C@@H](C)CO)C(=O)c2cc(NC(=O)Nc3ccccc3)ccc2O1	inactive
CC(C)CC#Cc1ccc2c(c1)O[C@H](CN(C)C(=O)c1ccccn1)[C@@H](C)CN([C@@H](C)CO)S2(=O)=O	inactive
c1cc(CN2CCCNCCNCCCNCC2)ccc1CN1CCCNCCNCCCNCC1	inactive
C[C@@H]1CCCCO[C@@H](CN(C)C(=O)Nc2cccc3ccccc23)[C@@H](C)CN([C@@H](C)CO)C(=O)c2cc(NC(=O)Nc3ccc(C(F)(F)F)cc3)ccc2O1	active
C[C@@H]1CCCCO[C@@H](CN(C)S(=O)(=O)c2ccc(F)cc2)[C@@H](C)CN([C@@H](C)CO)C(=O)c2cc(NS(C)(=O)=O)ccc2O1	inactive
COc1ccc(S(=O)(=O)Nc2ccc3c(c2)C(=O)N([C@@H](C)CO)C[C@H](C)[C@@H](CN(C)Cc2ccc4c(c2)OCO4)OCCCC[C@@H](C)O3)cc1	inactive
N[C@H](C(=O)O)[C@@H](OCc1ccccc1)C(=O)O	inactive
C#CC1(O)CCC2C3CCc4cc(O)ccc4C3CCC21C (configuration not stated)	inactive
Cc1noc(C)c1S(=O)(=O)N(C)C[C@H]1Oc2ccc(NS(=O)(=O)c3cn(C)cn3)cc2C(=O)N([C@@H](C)CO)C[C@H]1C	inactive
CCCCCCCC/C=C\CCCCCCCC(=O)O	inactive
NC(=O)c1cc2ccccc2oc1=O	inactive
C[C@@H]1CN([C@H](C)CO)C(=O)Cc2cc(NC(=O)Cc3ccccc3)ccc2O[C@@H]1CN(C)C(=O)Nc1cccc2ccccc12	inactive
COC(=O)[C@H]1[C@H](C(=O)O)[C@@]2(C(=O)Nc3ccc(C#Cc4ccc(OC)cc4)cc32)[C@@H](c2ccccc2)N1C	inactive
O=C(O)CCN1CCCCCC1=O	inactive
C[C@@H]1CN([C@H](C)CO)C(=O)c2cc(C#CCN(C)C)cnc2O[C@H]1CN(C)S(C)(=O)=O	inactive
C[C@H](CO)N1C[C@H](C)[C@H](CN(C)C(=O)Nc2ccc(F)cc2)OCCCC[C@H](C)Oc2ccc(NC(=O)CCC(F)(F)F)cc2C1=O	inactive
CCc1cccc(C(C)C)c1NC(=O)Nc1ccccc1	inactive
Cc1noc(C)c1S(=O)(=O)N(C)C[C@@H]1Oc2c(NS(C)(=O)=O)cccc2C(=O)N([C@@H](C)CO)C[C@H]1C	inactive
COc1ccc(S(=O)(=O)N(C)C[C@@H]2Oc3c(NC(=O)c4ccncc4)cccc3C(=O)N([C@@H](C)CO)C[C@H]2C)cc1	inactive
C[C@@H]1CCCCO[C@H](CN(C)C(=O)NC2CCCCC2)[C@@H](C)CN([C@H](C)CO)C(=O)c2cc(NC(=O)C3CCCCC3)ccc2O1	inactive
C[C@@H]1CN([C@@H](C)CO)C(=O)c2cccc(NC(=O)c3ccncc3)c2O[C@@H]1CN(C)Cc1ccc2c(c1)OCO2	inactive
C[C@H](NC(=O)C[C@@H]1CC[C@H](NC(=O)CN2CCOCC2)[C@@H](CO)O1)c1ccccc1	inactive
